Paper PMC12136788
This is one part of the list.

T1: UNK ZnF1-3 (human, UniProt Q9C0B0 31-174)
T1 sequence: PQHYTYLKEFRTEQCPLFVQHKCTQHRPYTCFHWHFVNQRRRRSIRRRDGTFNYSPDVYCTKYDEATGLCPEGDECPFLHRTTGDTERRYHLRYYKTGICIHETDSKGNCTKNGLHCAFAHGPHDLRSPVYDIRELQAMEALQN

B1: chr2:26491064:26491065:+_ENSMUSG00000036186_ENSMUST00000074240|mus_mus|motif|central (ssRNA)
RNA: GGGAGUUCUACAGUCCGACGAUCGAAGUCCGCCAUGAGAAGUAUCUGGUCAACCAGCGCUGGCAGGGAAGGCAGGUCUCCGGAGUUAGCCUUGAGGAAGCUGAGGGUCAUCUCCCGGAACUCCUUGAUGGAAGUUCCCCUGGUCAACAGAGGAUUGAGCAUCA
B2: chr11:102700179:102700180:-_ENSMUSG00000020929_ENSMUST00000107060|mus_hu|FALSE|FALSE (ssRNA)
RNA: GGGAGUUCUACAGUCCGACGAUCGUAAUUGAGCACAACAUCCUGUUUGGCAAGUUCCAGCAACAUAGGAUCAUCGAAGAAUUUGCUGAUGCUCACAUCUUCACUGAGGCCCUUCCUACGGCGGGUUUUGAUCAUGAAUUCCCGCAACAGAGGAUUGAGCAUCA
B3: chr5:144470944:144470945:+_ENSMUSG00000018001_ENSMUST00000116456|mus_hu|FALSE|FALSE (ssRNA)
RNA: GGGAGUUCUACAGUCCGACGAUCAUCAUUGAAUAACAGACACUCCAGAAAUCAACAGAUGUACAUUAUUUACAUAUUACUAUAUUUACCGCAAAUAGAAAUAUUUUCUAAGAAAAAAAGUCAAUUUGUGGUUUCUGGUCUACCCAACAGAGGAUUGAGCAUCA
B4: chr1:3697355:3697356:-_ENSG00000130764_ENST00000378251|hu_hu|motif|central (ssRNA)
RNA: GGGAGUUCUACAGUCCGACGAUCAUCAUGAGGUCAAGAGAUCAAGACCAUCCUGGUCAAAAUGGUGAAACCCCGUCUCGGCGGAAAAUACAAAAAUUAGCUGAGCUUAGUGGCACACACCUGUAGUCCCAGCUACUUGGGAGGCAACAGAGGAUUGAGCAUCA
B5: chr6:40197388:40197389:+_ENSMUSG00000057716_ENSMUST00000061740|mus_mus|mus_mus_mus_hu_False|98_108 (ssRNA)
RNA: GGGAGUUCUACAGUCCGACGAUCGAGUUGUCAGUUUGGAUGGCACCCACCUCUGUUUGGGUGCUAGCCACUAAGACUGUUAUUUUGGGAUUCAUGGCCUUGAAUAUCAAGAGGGAAAGGAAGAGGAUGGAAAGAGUCAAGAGUCAACAGAGGAUUGAGCAUCA
B6: chrX:102930994:102930995:-_ENSG00000123562_ENST00000441076|hu_mus|motif|central (ssRNA)
RNA: GGGAGUUCUACAGUCCGACGAUCAUAAGCCCUGUUUUACACUGACAGUUUUAAAGAACAUCAAUUAUACCAUGAAAGGACGGAACAGAAGUGUUUACAGAUACCAGACAAUAGUGAGCGGUCAGUAGACCUUCACAGGGCUUUCAACAGAGGAUUGAGCAUCA
B7: chr10:103870385:103870386:-_ENSG00000198728_ENST00000425280|hu_hu|FALSE|FALSE (ssRNA)
RNA: GGGAGUUCUACAGUCCGACGAUCGUCACAGUCGAGGGACACAAAGUUGCUGUGGAAUGCCUCCUUGGGGUGCUUAAGAACAUAGUACAGCUCCGUAGCACCCCCCUCAAAGAUGCUGCGGAAGUAGCGUGGGAUCAGGGUCCGCAACAGAGGAUUGAGCAUCA
B8: 117002743_117002863_279_CDS_ENSMUSG00000020823_ENSMUST00000090433|mouse|control|control (ssRNA)
RNA: GGGAGUUCUACAGUCCGACGAUCCGCAUCUAUAUCCAGCUUGCAGCGCCUCUCGAUGACAUGAAGAGCCCCAUCCUCACUCUUGAACUCGCUCACAGUGUCACUGUCCACGAACAUUGGAAUCAGAGGACAUGUAGGAAACCUCAACAGAGGAUUGAGCAUCA
B9: chrX:71549762:71549763:+_ENSMUSG00000019087_ENSMUST00000019231|mus_mus|mus_mus_mus_hu_False|28_58 (ssRNA)
RNA: GGGAGUUCUACAGUCCGACGAUCAAACCCGUGUACUUCUUAUUGUUAGCACAACAUCACCAGAAAACGAUAACGACAGCUAAGCUGGACAGACAGUUAAGUAGUACUUCCACACCUCCAAACUCAGGGAGCCCUAUAACCUUACAACAGAGGAUUGAGCAUCA
B10: chr8:95500983:95500984:-_ENSG00000164944_ENST00000437199|hu_hu|hu_hu_hu_mus_True|1_38 (ssRNA)
RNA: GGGAGUUCUACAGUCCGACGAUCAGAACACAUCUAUCGAGUAAAGGACCGUACAUGACGGCCUCUACCACUGCCUCCACUAACAAACUUUCCUCUCUGAGCCUCCAUGCCGCUAUUUGUACUAGCCCAGGACGGUCCCAAGUCCAACAGAGGAUUGAGCAUCA
B11: 88509813_88509933_4497_3pUTR_ENSMUSG00000034111_ENSMUST00000037418|mouse|control|control (ssRNA)
RNA: GGGAGUUCUACAGUCCGACGAUCAAGACAGUUCUGAAGCAGCACAAACUUAAUUUGCACCUUCUCUCUGUCCACUAAAAACGUCUUCACAUAAUUACUAGGGUCACUCAAUCCCACACCUUAGAACCAUGGACUCUGACAUUACAACAGAGGAUUGAGCAUCA
B12: chr2:179515052:179515053:+_ENSMUSG00000000305_ENSMUST00000000314|mus_hu|mus_mus_mus_hu_False|78_108 (ssRNA)
RNA: GGGAGUUCUACAGUCCGACGAUCGCUUUCCCGCGCAGUCACCGUGAACGCCACCUGCUCUGAGGGGACCUGCAGCUCCCGGGUGGCGAAGACUGUCCCAUCUGCCCCAACUUUGAAGUCCAUGCUGUUGGUCUCAUAUUGUGUCAACAGAGGAUUGAGCAUCA
B13: chr21:30248746:30248747:-_ENSG00000156239_ENST00000303775|hu_hu|motif|central (ssRNA)
RNA: GGGAGUUCUACAGUCCGACGAUCUCAAAAUAUGCUAAAUGCAUUCAGUUUCCAGUAGUUCUGGGCACACACUGUAUGCGGAGACUUGGUGAACUUGAGGACUGAAAGAGUUUCUUGGCCUGCUUGUCUGGAAAGUGCAGUGGUCAACAGAGGAUUGAGCAUCA
B14: 32341751_32342618_1515_3pUTR_ENSMUSG00000027665_ENSMUST00000108243|mouse|control|control (ssRNA)
RNA: GGGAGUUCUACAGUCCGACGAUCUCAGCAGAUCUUCUAACCCAUGCGGUACAGGCCAGAGAUUCAAAGCCAUUUUCCCGGACACUAGGGUGUCUGUAUAAUCAAACAAGUUUAUGUUUCCCCAGGCCAACGGACAGUGCUCCUCAACAGAGGAUUGAGCAUCA

target: T1, UNK ZnF1-3; test: nsRBNS (natural sequence RNA bind-n-seq); RBNS binding buffer (assumed for nsRBNS): 25 mM Tris pH 7.5, 150 mM KCl, 3 mM MgCl2, 0.01% Triton X-100, 500 ug/ml BSA, 20 U/ml SUPERase-In, 4 C; UNK is unkempt and MSI1 is Musashi-1; names of the RNAs are library labels; protein concentration not given here; high values mean tight binding

In order of rising binding signal:
1. B12  0.712 enrichment R
2. B14  0.759 enrichment R
3. B1  0.967 enrichment R
4. B11  0.996 enrichment R
5. B10  1.08 enrichment R
6. B13  1.08 enrichment R
7. B7  1.09 enrichment R
8. B9  1.18 enrichment R
9. B6  1.24 enrichment R
10. B4  1.28 enrichment R
11. B3  1.31 enrichment R
12. B5  1.34 enrichment R
13. B2  1.39 enrichment R
14. B8  1.65 enrichment R
